From a collection of fitness landscapes (doi:10.1038/s41467-024-54723-y)
Whole data set: some 18,000 sequences, median “TetR repression strength (sort-seq, GFP reporter)” near 0.23, cut for the highest 2% near 0.68. This is one part of the list.

molecular target: TetR (class B, Tn10) (UniProt P04483); assay: TetR repression strength (sort-seq, GFP reporter) (relative to tetO2 = 1); higher = stronger repression; details: E. coli
Outline: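 Escherichia coli SIG10-MAX cells carried a low-copy plasmid library in which eight operator positions were randomized between a constitutive promoter and sfGFP, and TetR was expressed constitutively. After 5 h of growth at 37 °C in LB with 50 µg/mL chloramphenicol, 10^6 cells were FACS-sorted into 13 fluorescence bins, and each bin was Illumina-sequenced. Repression strength was the top bin index plus one minus the read-weighted mean bin, divided by the value for the unaltered operator. Across three independent transformations, only library members with ≥30 reads in every replicate and a CV ≤0.5 were averaged.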

UniProt P04483, sequence (P04483 whole entry): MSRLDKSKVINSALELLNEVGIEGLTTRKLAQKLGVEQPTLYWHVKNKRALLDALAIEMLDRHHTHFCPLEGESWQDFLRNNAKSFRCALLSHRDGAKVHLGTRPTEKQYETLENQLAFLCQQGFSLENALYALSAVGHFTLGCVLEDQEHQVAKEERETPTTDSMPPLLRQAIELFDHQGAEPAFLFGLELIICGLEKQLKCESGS

Row | Sequence | TetR repression strength
1 | TCCCGTGGAGTGTAGGAGA | 0.217
2 | TCCCGATCAGTGATAGAGA | 0.778
3 | TCCCTAGGAGTAAAGGAGA | 0.244
4 | TCCCGTACAGTGTATGAGA | 0.062
5 | TCCCTGTAAGTTATAGAGA | 0.375
6 | TCCCTCTTAGTTTGCGAGA | 0.796
7 | TCCCGCCAAGTGGGTGAGA | 0.292
8 | TCCCATTCAGTTGAGGAGA | 0.373
9 | TCCCTACTAGTTTCTGAGA | 0.203
10 | TCCCTGGTAGTTGTTGAGA | 0.336
11 | TCCCTGGTAGTTGTGGAGA | 0.207
12 | TCCCTGGTAGTAGGGGAGA | 0.257
13 | TCCCAGATAGTGTGTGAGA | 0.0799
14 | TCCCACCCAGTACCTGAGA | 0.242
15 | TCCCTTGAAGTTATGGAGA | 0.346
16 | TCCCCGGCAGTCCATGAGA | 0.164
17 | TCCCTTCGAGTGCCAGAGA | 0.275
18 | TCCCCGTAAGTCGGTGAGA | 0.0631
19 | TCCCCATTAGTTCATGAGA | 0.17
20 | TCCCAGGCAGTTGCGGAGA | 0.239
21 | TCCCTGCGAGTAGCAGAGA | 0.323
22 | TCCCGTGTAGTCACTGAGA | 0.207
23 | TCCCTTTCAGTAATCGAGA | 0.512
24 | TCCCCGCCAGTTCACGAGA | 0.207
25 | TCCCGGCGAGTGACTGAGA | 0.299
26 | TCCCAGATAGTCAGCGAGA | 0.131

Row | Sequence | TetR repression strength
27 | TCCCCTGTAGTGCATGAGA | 0.448
28 | TCCCTGTTAGTAGCTGAGA | 0.188
29 | TCCCACGCAGTACTAGAGA | 0.395
30 | TCCCCGTTAGTTGACGAGA | 0.23
31 | TCCCTGTGAGTTTAAGAGA | 0.506
32 | TCCCTTCTAGTCTCTGAGA | 0.487
33 | TCCCCATCAGTAGACGAGA | 0.299
34 | TCCCTCGGAGTAACAGAGA | 0.219
35 | TCCCGCCTAGTGGACGAGA | 0.27
36 | TCCCGAGGAGTATCAGAGA | 0.293
37 | TCCCACGTAGTTCTAGAGA | 0.299
38 | TCCCGGAGAGTGGTTGAGA | 0.157
39 | TCCCAGGGAGTAATCGAGA | 0.283
40 | TCCCCGGTAGTGGTCGAGA | 0.315
41 | TCCCTTGGAGTATATGAGA | 0.119
42 | TCCCGAAAAGTGCGTGAGA | 0.126
43 | TCCCGTGAAGTTTGCGAGA | 0.0551
44 | TCCCAAACAGTTAAAGAGA | 0.347
45 | TCCCTGGCAGTTAGGGAGA | 0.365
46 | TCCCAAGTAGTACGGGAGA | 0.201
47 | TCCCTTAAAGTGCTCGAGA | 0.747
48 | TCCCGCGCAGTGTGAGAGA | 0.191
49 | TCCCGACCAGTTGAAGAGA | 0.159
50 | TCCCCTGGAGTGGCTGAGA | 0.313
51 | TCCCGACTAGTGCCTGAGA | 0.521
52 | TCCCGGCAAGTCGAGGAGA | 0.191

Row | Sequence | TetR repression strength
53 | TCCCATGGAGTCGGGGAGA | 0.261
54 | TCCCTGATAGTTTAGGAGA | 0.478
55 | TCCCGTGAAGTTGAGGAGA | 0.193
56 | TCCCAGACAGTGTCAGAGA | 0.134
57 | TCCCCAGTAGTAGGGGAGA | 0.224
58 | TCCCTTGGAGTTGGCGAGA | 0.423
59 | TCCCCTAGAGTTGCGGAGA | 0.326
60 | TCCCAGGAAGTTTATGAGA | 0.255
61 | TCCCCTTGAGTATGGGAGA | 0.288
62 | TCCCATCCAGTGGATGAGA | 0.399
63 | TCCCAATAAGTCGACGAGA | 0.0319
64 | TCCCTACAAGTGTGGGAGA | 0.147
65 | TCCCGTGAAGTATGGGAGA | 0.138
66 | TCCCTGTCAGTTCTGGAGA | 0.326
67 | TCCCTCAGAGTGGGAGAGA | 0.271
68 | TCCCGTTTAGTGCGGGAGA | 0.252
69 | TCCCTGCCAGTTTCCGAGA | 0.207
70 | TCCCTTTGAGTAACTGAGA | 0.214
71 | TCCCGTTGAGTGCCTGAGA | 0.23
72 | TCCCTTGTAGTTGTGGAGA | 0.229
73 | TCCCTGTGAGTAAGGGAGA | 0.212
74 | TCCCGGACAGTCAGTGAGA | 0.191
75 | TCCCCCGGAGTGAGGGAGA | 0.117
76 | TCCCGCGAAGTGAAGGAGA | 0.138
77 | TCCCGTTTAGTGGTAGAGA | 0.166
78 | TCCCTCATAGTAAGAGAGA | 0.291

Row | Sequence | TetR repression strength
79 | TCCCTTCCAGTACGAGAGA | 0.217
80 | TCCCCGACAGTGGCAGAGA | 0.221
81 | TCCCCCGCAGTCACGGAGA | 0.234
82 | TCCCGCAGAGTCCGTGAGA | 0.18
83 | TCCCTATTAGTGCTGGAGA | 0.314
84 | TCCCACGCAGTGGACGAGA | 0.182
85 | TCCCCGTCAGTCATAGAGA | 0.447
86 | TCCCCCAGAGTTTGGGAGA | 0.132
87 | TCCCTGGGAGTGGCAGAGA | 0.223
88 | TCCCAGTGAGTGATGGAGA | 0.138
89 | TCCCATATAGTTGTGGAGA | 0.105
90 | TCCCCGGTAGTGTCTGAGA | 0.225
91 | TCCCGGCTAGTTGCTGAGA | 0.144
92 | TCCCCACCAGTACCGGAGA | 0.235
93 | TCCCATAGAGTCGCCGAGA | 0.321
94 | TCCCTGCGAGTGGCAGAGA | 0.126
95 | TCCCTAAGAGTGGGGGAGA | 0.198
96 | TCCCATGTAGTACATGAGA | 0.0597
97 | TCCCGCGCAGTTGTGGAGA | 0.139
98 | TCCCATACAGTCGTCGAGA | 0.177
99 | TCCCTGGCAGTGCCCGAGA | 0.314
100 | TCCCCATTAGTACACGAGA | 0.186
101 | TCCCTGTAAGTGTGGGAGA | 0.113
102 | TCCCTAGTAGTGTGGGAGA | 0.216
